The record followed here is paper PMC6919601, “Identification of Plasmodium dipeptidyl aminopeptidase allosteric inhibitors by high throughput screening” (PLoS ONE, 2019).

Screen size: about 110,000 compounds; about 230 (0.21%) showed an effect of 50% or more. Some of the results follow.
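Note: 30 min substrate incubation versus DMSO and 10 µM JCP410 controls.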

Chain of DPAP1 (Q8IIJ9 whole entry, looked up): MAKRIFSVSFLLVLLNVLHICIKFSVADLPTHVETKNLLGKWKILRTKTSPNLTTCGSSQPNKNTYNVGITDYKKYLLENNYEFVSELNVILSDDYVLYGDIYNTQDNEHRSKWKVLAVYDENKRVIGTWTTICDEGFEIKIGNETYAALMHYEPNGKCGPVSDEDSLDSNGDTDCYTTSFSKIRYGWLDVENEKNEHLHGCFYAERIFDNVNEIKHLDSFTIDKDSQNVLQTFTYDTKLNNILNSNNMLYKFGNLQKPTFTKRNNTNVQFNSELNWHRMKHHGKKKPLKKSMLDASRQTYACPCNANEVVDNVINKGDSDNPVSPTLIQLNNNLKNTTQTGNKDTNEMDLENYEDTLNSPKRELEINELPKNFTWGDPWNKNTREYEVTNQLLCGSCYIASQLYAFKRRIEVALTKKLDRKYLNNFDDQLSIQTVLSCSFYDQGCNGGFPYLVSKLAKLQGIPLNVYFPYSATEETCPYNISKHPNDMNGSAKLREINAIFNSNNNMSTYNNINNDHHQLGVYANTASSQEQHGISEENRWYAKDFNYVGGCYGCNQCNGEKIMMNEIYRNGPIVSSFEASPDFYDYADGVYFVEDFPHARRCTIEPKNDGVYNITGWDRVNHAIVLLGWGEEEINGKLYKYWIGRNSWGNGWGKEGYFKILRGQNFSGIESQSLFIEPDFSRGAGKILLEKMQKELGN

The experiment addresses DPAP1 (Plasmodium falciparum, UniProt Q8IIJ9). The experiment is described as follows: primary screen, percent inhibition; read by cleavage of a fluorogenic dipeptide substrate; higher = more effect of the substance. Set-up: species or system P. falciparum D10 trophozoite lysates; single well.
As to `Cc1cc(C(=O)NCc2ccc(-n3cccc3)cc2)c2ccccc2n1`, the “% Inhibition @ 10 uM” value is on record as -3.75%.

Regarding `OCC1CCCN(Cc2ccc(F)c(Br)c2)C1` (stereo not drawn), the “% Inhibition @ 10 uM” value is given as -6.35%.

In the case of `O=C(/C=C/c1ccccc1Cl)c1ccccn1`, the “% Inhibition @ 10 uM” value came out at 0.526%.

As to `Cn1ncc2c(NCc3ccccc3Cl)ncnc21`, the “% Inhibition @ 10 uM” value is on record as 0.0904%.

With `Cc1cccc(-n2cc(-c3ccccc3)c3c(N4CCC5(CC4)OCCO5)ncnc32)c1`, the “% Inhibition @ 10 uM” value is given as -0.438%.

`N#Cc1cccc(NC(=O)Cc2ccccc2)c1`: the “% Inhibition @ 10 uM” value was -0.473%.

On to `Cc1ccc2nc3c(O)n(CC(=O)NC4CCCCC4)ncc-3c2c1`, for which the “% Inhibition @ 10 uM” value came to 1.74%.

For the molecule `O=C(N1CCCC1)C(O)(c1ccccc1)c1ccccc1`, the “% Inhibition @ 10 uM” value is given as -0.687%.

For the molecule `CC(O)CCC(=O)NCCNC(=O)CCC(C)O` (stereo not drawn), the “% Inhibition @ 10 uM” value is recorded as -5.51%.

Consider `COc1ccc(CN2CCN(Cc3ccc(SC)cc3)CC2)c(OC)c1OC`, for which the “% Inhibition @ 10 uM” value is 2.45%.

As for `COc1ccc(-c2nnc(NC(=O)c3cccc(C)c3)s2)cc1`, the “% Inhibition @ 10 uM” value was -1.25%.

Turning to `CCN(CC)C(=S)NC(=O)/C=C/c1ccco1`, the “% Inhibition @ 10 uM” value stood at 1.9%.

Regarding `Cc1ccc(-c2noc(CNC(=O)c3ccco3)n2)cc1`, the “% Inhibition @ 10 uM” value was 2.14%.

For `CN1CCN(CCNC(=O)c2ccc(-n3cnc4cccnc43)cc2)CC1`, the “% Inhibition @ 10 uM” value was -3.84%.

For `Cc1c(C(=O)NCc2ccccn2)oc2ccc(S(=O)(=O)N3CCC4(CC3)OCCO4)cc12`, the “% Inhibition @ 10 uM” value was -0.972%.

Turning to `COc1ccc(NC(=O)C(=O)NCCCO)c(OC)c1`, the “% Inhibition @ 10 uM” value stood at 0.565%.

Turning to `CC1=C(C(=O)N2CCC(Cc3ccccc3)CC2)C2(CCCCC2)OC1=O`, the “% Inhibition @ 10 uM” value is recorded as -0.138%.

For `C#CCN1C(=O)S/C(=C\c2ccc(OCC(=O)O)cc2)C1=O`, the “% Inhibition @ 10 uM” value is recorded as 2.48%.

On to `CCCOc1ccc(C(=O)Nc2ccccc2C(=O)OC)cc1`, for which the “% Inhibition @ 10 uM” value was 3.29%.

As to `CS(=O)(=O)N(CC(=O)NC1CCCC1)c1cccc(Cl)c1`, the “% Inhibition @ 10 uM” value was -0.173%.

For the molecule `CC1=C(C(=O)c2ccccc2)C(NC(=O)c2cccnc2)(C(F)(F)F)C(=O)N1CCc1ccccc1` (stereo not drawn), the “% Inhibition @ 10 uM” value is -2.63%.

For `COc1cccc(N2C(=O)CC(N3CCN(c4ccccn4)CC3)C2=O)c1` (stereo not drawn), the “% Inhibition @ 10 uM” value was -3.9%.

`O=C(O)C1C2C=CC(C3CC23)C1C(=O)Nc1ccccc1` (stereo not drawn): the “% Inhibition @ 10 uM” value was -7.68%.

Turning to `CN1CCC(N2CCN(c3ccccc3Cl)CC2)CC1`, the “% Inhibition @ 10 uM” value stood at 1.57%.

As to `CCOC(=O)N1CCC(N[C@H]2CC[C@H](O)CC2)CC1`, the “% Inhibition @ 10 uM” value is listed as -7.35%.

As to `CCc1c(C)nc2c(-c3ccccc3)cnn2c1O`, the “% Inhibition @ 10 uM” value worked out at 3.16%.

Take `CCOC(=O)c1c(C)[nH]c(C)c1S(=O)(=O)NCCC1=CCCCC1`: the “% Inhibition @ 10 uM” value was -5.36%.

Consider `CCCCCn1c(SC/C=C(/C)Cl)nc2c1c(=O)[nH]c(=O)n2C`, for which the “% Inhibition @ 10 uM” value turned out to be 2.38%.

For the molecule `Cc1ccc(C2OC(=O)c3ccccc32)cc1` (stereo not drawn), the “% Inhibition @ 10 uM” value was determined as 18.3%.

On to `Cc1nnc(N2CCCC(C(=O)NCCCOC(C)C)C2)c2nn(-c3ccc(Cl)cc3)c(C)c12` (stereo not drawn), for which the “% Inhibition @ 10 uM” value is 12.1%.

For `COc1ccc(NC(=O)Cc2ccccc2)cc1OC`, the “% Inhibition @ 10 uM” value came to 0.247%.

Turning to `Cc1cc(C)c2c(n1)SCC(=O)N2CC(=O)NCCC1=CCCCC1`, the “% Inhibition @ 10 uM” value is -4.15%.

For the molecule `C=CCNC(=O)c1cc(-c2ccc(OC)cc2)on1`, the “% Inhibition @ 10 uM” value was 0.723%.

With `Cc1ccccc1Cn1cc(CCC(=O)NC2CC2)c2ccccc21`, the “% Inhibition @ 10 uM” value is given as -4.65%.

As to `COc1ccc2cc3cc(C(=O)NCc4ccc(F)cc4Cl)oc3nc2c1`, the “% Inhibition @ 10 uM” value is given as -1.54%.

Take `COC(=O)c1cc2ccsc2n1Cc1nc(-c2ccc(Cl)cc2)oc1C`: the “% Inhibition @ 10 uM” value was -2.34%.

On to `COc1ccc(OC)c(CCNC2=NS(=O)(=O)C(c3ccc(C)cc3)=C2C)c1`, for which the “% Inhibition @ 10 uM” value is 0.623%.

With `CC1=C(C(N)=O)C(c2ccc(OCc3ccccc3)cc2)n2nc(CCCO)nc2N1` (stereo not drawn), the “% Inhibition @ 10 uM” value turned out to be 1.96%.

As to `O=C(c1ccc(COc2ccc3ccccc3c2)o1)N1N=C(C(F)F)CC1(O)C(F)F` (stereo not drawn), the “% Inhibition @ 10 uM” value came to 1.43%.

Turning to `O=C(NCc1ccccn1)c1cnc2sccn2c1=O`, the “% Inhibition @ 10 uM” value was -2.29%.

On to `Cc1cc(C(F)(F)F)c2c(n1)sc1c(=O)[nH]c(=O)[nH]c12`, for which the “% Inhibition @ 10 uM” value is 4.61%.

As for `Cn1nc(C(=O)Nc2ccc3c(c2)OCO3)cc1C(=O)O`, the “% Inhibition @ 10 uM” value is 0.214%.

Take `Nc1ccc(S(=O)(=O)N2CCOCC2)cc1`: the “% Inhibition @ 10 uM” value is recorded as -0.856%.

Regarding `Cc1nnc(N2CCC(C(=O)NCCC(C)C)CC2)c2nn(-c3ccccc3)c(C)c12`, the “% Inhibition @ 10 uM” value stood at 8.13%.

Regarding `O=C(CS(=O)(=O)c1ccccc1)Nc1ccc(S(=O)(=O)Nc2ccccn2)cc1`, the “% Inhibition @ 10 uM” value was found to be 4.67%.

Take `CC(C)CNC1CC(=O)N(c2ccc(Cl)cc2)C1=O` (stereo not drawn): the “% Inhibition @ 10 uM” value is -2.8%.

On to `Cc1nc2c3ccccc3n3c(CCCC(=O)N4CCC(C(N)=O)CC4)nnc3n2n1`, for which the “% Inhibition @ 10 uM” value is -1.21%.

For the molecule `Cc1cc(C)nc(NS(=O)(=O)c2ccc(NC(=O)NC(=O)c3ccccc3)cc2)n1`, the “% Inhibition @ 10 uM” value is 0.00784%.

For the molecule `NC(=O)c1c(NC(=O)c2cccs2)sc2c1CCCC2`, the “% Inhibition @ 10 uM” value is 0.658%.

Regarding `O=C(Nc1nnc(-c2ccccc2)s1)c1ccc(F)cc1`, the “% Inhibition @ 10 uM” value amounted to 5.94%.

In the case of `COCc1nc2ccccc2[nH]1`, the “% Inhibition @ 10 uM” value is given as 1.72%.

`Cc1ccc(-n2nc3c(c2NC(=O)COc2ccccc2)CS(=O)(=O)C3)cc1`: the “% Inhibition @ 10 uM” value is -1.12%.

`O=C(Nc1ccccc1C(=O)O)c1cccs1`: the “% Inhibition @ 10 uM” value is listed as -0.969%.

Take `Cc1ccc(-c2cc(N)n(S(=O)(=O)c3ccc(F)cc3)n2)cc1`: the “% Inhibition @ 10 uM” value was 1.15%.

For the molecule `Cc1nc(SCc2ccccc2)c(C#N)c(C)c1C`, the “% Inhibition @ 10 uM” value stood at 34.7%.

Regarding `Cc1ccccc1CNC(=O)Cn1ccc2cc(S(=O)(=O)N3CCCC3)ccc21`, the “% Inhibition @ 10 uM” value is -0.177%.

Turning to `CCOC(=O)c1cc(-c2ccc(OC)c(S(=O)(=O)NCc3ccc(Cl)cc3)c2)on1`, the “% Inhibition @ 10 uM” value was -10.1%.

Regarding `COc1ccccc1-c1nn2c(C3COc4ccccc4O3)nnc2s1` (stereo not drawn), the “% Inhibition @ 10 uM” value worked out at 7.5%.

With `O=C(CCCOc1ccc(Cl)cc1Cl)NCc1ccccn1`, the “% Inhibition @ 10 uM” value is -3.71%.

For `CN1C(=O)c2ccc(N3C(=O)c4ccc([N+](=O)[O-])cc4C3=O)cc2C1=O`, the “% Inhibition @ 10 uM” value is given as -4.01%.

For the molecule `CC(C)CC(NC(=O)Cc1ccccc1)P(=O)(O)O` (stereo not drawn), the “% Inhibition @ 10 uM” value was 0.634%.

With `O=C(c1nn2c(C(F)(F)F)cc(-c3ccccc3)nc2c1Cl)N1CCCCC1`, the “% Inhibition @ 10 uM” value worked out at 1.67%.

On to `Cc1ccc(-c2csc3ncnc(N4CCOCC4)c23)cc1`, for which the “% Inhibition @ 10 uM” value was -8.18%.

Turning to `CCCCNC(=O)C1CCC(CNc2nc(S)nc3ccccc23)CC1` (stereo not drawn), the “% Inhibition @ 10 uM” value is reported as 4.49%.

In the case of `CCc1nc2ccc(C(=O)NC3CCCCCC3)cc2nc1CC`, the “% Inhibition @ 10 uM” value is listed as 3.42%.

For the molecule `COC(=O)c1c(NC(=O)COc2cc(C)c(Cl)c(C)c2)sc(C)c1C`, the “% Inhibition @ 10 uM” value is recorded as -4.7%.
